Measured values taken from the supplement of paper PMC12217912.
This is one part of the list. The full chains were built here from the parent and the listed change. Inactive controls read about 0.05.

B1: TEV protease; numbered along this chain (parent)
chain: MGESLFKGPRDYNPISSSICHLTNESDGHTTSLYGIGFGPFIITNKHLFRRNNGTLVVQSLHGVFKVKDTTTLQQHLVDGRDMIIIRMPKDFPPFPQKLKFREPQREERICLVTTNFQTKSMSSMVSDTSCTFPSGDGIFWKHWIQTKDGQCGSPLVSTRDGFIVGIHSASNFTNTNNYFTSVPKNFMELLTNQEAQQWVSGWRLNADSVLWGGHKVFMVKPEEPFQPVKEATQL

Variants of: B1
Experiment: raw area under fraction-flipped curve 0-4 h after induction (AUC4h, not background-subtracted), DNA-recorder readout of cleavage of the substrate (dimensionless); higher = more cleavage of the substrate by the protease variant
Conditions: temperature: 34 °C; time window: 0-4 h after rhamnose induction
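Also: Bxb1 expression induced with 0.2% (w/v) L-rhamnose at OD600 near 0.5, cultures sampled hourly, flipped fraction per protease–substrate barcode pair counted by paired-end Illumina sequencing.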

Variant | area with substrate ENLYDQS | area with substrate ENLYGQS | area with substrate ENLYHQS | area with substrate ENLYMQS | area with substrate ENLYNQS | area with substrate ENLYQQS | area with substrate ENLYRQS | area with substrate ENLYSQS | area with substrate ENLYVQS | area with substrate ENLYWQS | area with substrate ENLYYQS | area with substrate ENLYEQS | area with substrate ENLYIQS | area with substrate ENLYPQS | area with substrate ENLYTQS | area with substrate ENLYKQS | area with substrate ENLYLQS
P155T | 0.0866 | 0.049 | 0.0419 | 0.0595 | 0.0592 | 0.0491 | 0.0582 | 0.0543 | 0.113 | 0.072 | 0.0475 | – | – | – | – | – | –
T181W | 0.0604 | – | 0.0663 | 0.0573 | 0.0604 | – | 0.0465 | – | – | – | – | 0.0606 | 0.0818 | 0.0491 | – | – | –
T181N | 0.057 | – | 0.0623 | – | 0.0557 | – | 0.0673 | – | 0.076 | 0.058 | 0.0581 | – | 0.0626 | 0.0662 | 0.0411 | – | –
I167M | 0.0566 | 0.0633 | 0.0409 | – | – | – | 0.0552 | – | – | 0.102 | – | 0.0539 | 0.0962 | – | 0.0808 | 0.0772 | –
D161N | 0.0602 | – | 0.0594 | 0.0594 | 0.0356 | 0.0645 | 0.0429 | 0.0623 | 0.1 | 0.066 | 0.062 | 0.0723 | 0.0941 | 0.0676 | – | 0.0452 | 0.0508
F180T | 0.0639 | – | – | – | – | 0.0573 | 0.0509 | 0.0623 | – | – | – | 0.0595 | – | 0.0515 | – | 0.0285 | –
F180Y | 0.0659 | 0.0629 | 0.069 | 0.0806 | 0.0677 | – | 0.0646 | 0.0668 | – | 0.0965 | 0.0652 | 0.0519 | 0.137 | 0.0629 | – | – | 0.102
F187V | 0.0644 | – | 0.0634 | – | 0.0723 | – | – | 0.0695 | – | – | – | 0.0682 | – | – | – | 0.0215 | –
F187K | 0.0535 | – | 0.0517 | – | 0.0413 | 0.0443 | 0.069 | 0.0508 | – | 0.0501 | – | – | – | – | – | 0.0638 | –
W199T | 0.0593 | 0.0513 | 0.0392 | 0.062 | 0.067 | – | 0.0633 | 0.0675 | 0.0799 | 0.057 | – | 0.0513 | 0.0613 | 0.0678 | 0.0626 | – | –
M188K | 0.0477 | – | 0.066 | 0.0598 | 0.0651 | 0.0707 | 0.0524 | 0.0837 | 0.147 | 0.0779 | 0.067 | 0.052 | – | 0.0744 | 0.0808 | 0.0665 | 0.0648
M188G | 0.0651 | 0.0586 | 0.0653 | 0.092 | 0.0754 | – | 0.0422 | – | 0.165 | 0.0619 | 0.0603 | 0.0718 | 0.11 | 0.0598 | – | 0.0586 | –
M188V | 0.0644 | 0.0504 | 0.0468 | – | 0.0675 | – | 0.0584 | – | 0.0474 | – | – | – | 0.142 | 0.0606 | – | – | –
G162Y | 0.0432 | 0.0684 | 0.0697 | – | 0.0714 | 0.0773 | 0.0644 | – | 0.0722 | – | – | 0.0965 | 0.106 | 0.0733 | 0.0667 | 0.0588 | –
G162E | 0.045 | 0.0538 | 0.0624 | 0.0732 | – | – | – | 0.0664 | – | – | 0.0605 | 0.062 | 0.11 | – | – | 0.0765 | –
G162Q | 0.0561 | 0.0521 | 0.0753 | 0.0846 | – | 0.0445 | 0.0613 | 0.0814 | 0.0888 | 0.0856 | – | – | – | – | – | 0.0406 | –
F173K | 0.0849 | 0.0779 | – | 0.0777 | 0.0626 | – | – | 0.0663 | – | – | – | – | 0.0727 | 0.0783 | – | – | –

Variant | area with substrate ENLYDQS | area with substrate ENLYGQS | area with substrate ENLYHQS | area with substrate ENLYMQS | area with substrate ENLYNQS | area with substrate ENLYQQS | area with substrate ENLYRQS | area with substrate ENLYSQS | area with substrate ENLYVQS | area with substrate ENLYWQS | area with substrate ENLYYQS | area with substrate ENLYEQS | area with substrate ENLYIQS | area with substrate ENLYPQS | area with substrate ENLYTQS | area with substrate ENLYKQS | area with substrate ENLYLQS
Q197H | 0.0646 | – | 0.0598 | 0.0788 | – | 0.0707 | 0.0714 | – | 0.107 | – | – | 0.077 | – | 0.063 | – | 0.058 | –
Q197L | 0.0557 | 0.0522 | 0.0608 | – | 0.0783 | – | 0.0626 | – | – | 0.0823 | – | 0.0793 | 0.132 | 0.0777 | – | 0.0499 | 0.105
Q151K | 0.0463 | – | – | 0.0645 | 0.0599 | – | 0.0614 | – | – | 0.0505 | – | 0.0724 | – | 0.0589 | – | – | –
D149E | 0.066 | 0.0689 | 0.0576 | – | 0.0664 | – | – | 0.0667 | 0.0743 | 0.0808 | – | 0.0699 | 0.111 | 0.0861 | – | 0.0521 | 0.0878
D149W | 0.0518 | 0.0423 | – | 0.0727 | 0.0659 | 0.0518 | – | 0.0673 | 0.0679 | – | – | 0.0671 | 0.0659 | 0.0421 | 0.0508 | 0.0497 | –
G150M | 0.069 | – | 0.0438 | 0.0321 | 0.0476 | – | 0.065 | – | 0.062 | 0.0659 | – | 0.0599 | 0.0501 | 0.0565 | – | 0.059 | –
E195I | 0.0724 | – | 0.0576 | – | 0.0699 | 0.0527 | 0.0604 | – | 0.118 | – | 0.0515 | – | 0.0908 | – | 0.0773 | – | –
N177W | 0.0589 | 0.074 | 0.0496 | 0.0718 | 0.0486 | – | – | – | 0.0567 | – | – | – | – | 0.0669 | 0.0574 | 0.0603 | –
N177F | 0.0499 | 0.0628 | 0.0806 | 0.0563 | 0.0564 | 0.0581 | 0.0559 | 0.07 | 0.111 | 0.0647 | 0.0887 | 0.062 | 0.0665 | 0.0738 | – | 0.0657 | 0.0708
A170L | 0.0573 | – | 0.0601 | – | – | 0.0616 | 0.0602 | 0.0306 | – | – | – | 0.0538 | – | – | – | 0.0608 | –
A170P | 0.048 | – | 0.0706 | – | – | 0.0501 | – | 0.0686 | 0.0485 | – | – | – | – | – | – | – | –
L156A | 0.0531 | 0.0534 | 0.0623 | 0.0863 | 0.0788 | 0.0638 | 0.0757 | – | 0.123 | – | – | 0.0679 | 0.1 | 0.0713 | 0.07 | 0.0728 | –
N193F | 0.0646 | 0.054 | 0.0671 | 0.0851 | – | – | – | – | – | 0.0564 | – | – | – | 0.0702 | – | 0.0751 | –
N193H | 0.0663 | – | 0.0711 | 0.0047 | 0.0809 | – | – | – | – | – | – | 0.0751 | – | – | – | 0.0616 | –
Q146Y | 0.0685 | 0.0697 | – | 0.107 | 0.0628 | 0.071 | 0.0497 | – | 0.142 | 0.0849 | – | 0.0683 | – | – | – | 0.0716 | 0.073
N172D | 0.0513 | – | 0.0556 | 0.0531 | 0.0718 | – | 0.0696 | – | 0.108 | 0.0359 | 0.0574 | 0.0651 | – | 0.0707 | – | – | –
A196P | 0.065 | 0.0648 | 0.0756 | – | 0.0543 | 0.0568 | 0.059 | 0.102 | – | – | 0.0981 | – | – | – | – | 0.0688 | –
